# Data taken from publication PMC4336329 (PLoS ONE, 2015).
# Out of some 310,000 compounds screened, about 2,200 (0.71%) showed an effect of 50% or more. The effect is printed as a negative number. This is one part of the list.
# Target: human ether-à-go-go-related gene (hERG) potassium channel (human, UniProt Q12809)
# Assay: primary screen, population patch clamp on CHO cells stably expressing hERG
# human ether-à-go-go-related gene (hERG) potassium channel, sequence (Q12809 whole entry, looked up): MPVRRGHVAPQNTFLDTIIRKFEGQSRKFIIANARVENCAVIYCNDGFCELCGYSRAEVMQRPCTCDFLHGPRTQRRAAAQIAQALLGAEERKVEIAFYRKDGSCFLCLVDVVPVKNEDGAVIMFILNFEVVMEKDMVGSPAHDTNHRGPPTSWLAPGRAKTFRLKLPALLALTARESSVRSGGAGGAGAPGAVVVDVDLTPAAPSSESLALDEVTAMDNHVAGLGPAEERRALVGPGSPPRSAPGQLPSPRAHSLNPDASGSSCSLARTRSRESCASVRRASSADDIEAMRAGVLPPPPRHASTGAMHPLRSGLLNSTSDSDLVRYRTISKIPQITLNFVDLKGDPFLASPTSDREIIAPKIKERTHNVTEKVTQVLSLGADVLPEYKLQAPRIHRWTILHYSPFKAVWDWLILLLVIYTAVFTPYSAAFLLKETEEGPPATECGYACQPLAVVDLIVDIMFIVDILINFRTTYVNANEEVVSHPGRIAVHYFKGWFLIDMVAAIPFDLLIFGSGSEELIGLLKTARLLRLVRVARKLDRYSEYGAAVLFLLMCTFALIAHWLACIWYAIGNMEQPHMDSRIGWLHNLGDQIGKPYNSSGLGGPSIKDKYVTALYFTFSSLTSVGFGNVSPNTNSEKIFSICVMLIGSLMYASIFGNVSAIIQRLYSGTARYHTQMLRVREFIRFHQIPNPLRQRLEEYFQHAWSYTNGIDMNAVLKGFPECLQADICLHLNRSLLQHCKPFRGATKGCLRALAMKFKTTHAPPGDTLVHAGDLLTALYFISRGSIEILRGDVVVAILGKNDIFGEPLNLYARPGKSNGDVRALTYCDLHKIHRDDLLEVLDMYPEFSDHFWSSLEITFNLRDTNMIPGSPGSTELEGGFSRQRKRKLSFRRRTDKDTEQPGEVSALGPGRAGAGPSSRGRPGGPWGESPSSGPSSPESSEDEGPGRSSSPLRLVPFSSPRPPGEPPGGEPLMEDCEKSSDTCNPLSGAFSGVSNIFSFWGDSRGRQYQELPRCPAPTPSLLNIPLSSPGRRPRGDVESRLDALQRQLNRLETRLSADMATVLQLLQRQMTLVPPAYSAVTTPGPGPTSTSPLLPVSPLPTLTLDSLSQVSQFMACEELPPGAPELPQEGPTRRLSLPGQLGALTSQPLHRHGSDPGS
row,SMILES,"hERG current change (%, negative = inhibition) at 1uM"
1,O=[N+]([O-])c1ccc(CSc2nc3ccccc3o2)cc1,11.2%
2,COC(=O)c1ccccc1NC(=O)c1ccco1,3.36%
3,CC(C)NC(=O)NNC(=O)c1cc(COc2cc(Cl)cc(Cl)c2)on1,7.72%
4,COc1ccc(-n2c(SCC(=O)Nc3nccs3)nc3c(c2=O)SCC3)cc1,9.88%
5,COc1ccc(N(C(=O)COc2ccc(C)cc2)S(=O)(=O)c2ccc(C)cc2)cc1,1%
6,OCC[C@@H]1C[C@H](O)[C@@H](O)[C@@]2(CCCc3ccccc3O2)O1,19.3%
7,CC(C)N1CCC(=NNC(=O)c2cccs2)CC1,24.2%
8,Cc1ccc(SCC(=O)N(C)C2CCS(=O)(=O)C2)cc1 (centres unmarked),8.94%
9,CC1CC(C)CN(C(=O)CSc2nnc(-c3ccc(Cl)cc3)o2)C1 (centres unmarked),3.62%
10,O=S(=O)(Nc1ccc(S(=O)(=O)N2CCCC2)cc1)c1ccc(F)cc1,5.47%
11,Cc1cccc(-n2c(=O)[nH]c3c(C(N)=O)nc(C(C)C)nc32)c1,4.1%
12,Cc1cc(NS(=O)(=O)c2ccc(N)cc2)no1,13.5%
13,CCC(=O)NC(Cc1ccccc1)c1ccc2c(c1)OCCCO2 (centres unmarked),10.7%
14,O=C(O)c1ccc(NC(=S)NC(=O)c2cccc(COc3ccccc3)c2)cc1,19.7%
15,Cl.OC(CNC1CCCC1)COc1ccc(Cl)cc1 (centres unmarked),2.27%
16,CCOC(=O)c1cn(CC(=O)Nc2cccc(Cl)c2)nn1,1.17%
17,O=C(Nc1cnc2ccccc2c1)c1cccc(-n2cnnn2)c1,11.7%
18,O=C(NC(=S)Nc1ccc(CN2CCOCC2)cc1)c1ccc([N+](=O)[O-])cc1,13%
19,Oc1ccc2ccccc2c1/C=N/c1nccs1,15.2%
20,CC(Sc1nnc(CNc2cccc3ccccc23)n1-c1ccccc1)C(=O)N/N=C/c1ccco1 (centres unmarked),2.27%
21,Cc1ccc(C)c(N2CCN(S(=O)(=O)c3c(C)noc3/C=C/N(C)C)CC2)c1,0.956%
22,COc1ccc(C2C3C=CCC(c4cccc(-c5ccc(C)cc5)c4)C3C(=O)N2Cc2ccccc2)cc1Cl (centres unmarked),8.74%
23,Cc1ccc(S(=O)(=O)NCCS(=O)(=O)N2CCN(c3ccc(F)cc3)CC2)cc1,-3.7%

row,SMILES,"hERG current change (%, negative = inhibition) at 1uM"
1,Cn1nccc1C(=O)Nc1ccc2c(c1)OCO2,6.11%
2,CCCCSc1nnc(-c2ccc(NC(=O)CC)cc2)n1C,14%
3,CC1=C(C(=O)Nc2ccccc2C)C(c2cccnc2)n2nc(CCCO)nc2N1 (centres unmarked),1.7%
4,Cc1cc(C=O)c(C)n1CC1CCCO1 (centres unmarked),14.1%
5,COc1ccc(NC(=O)c2oc3ccccc3c2NC(=O)C(C)(C)C)cc1,10%
6,O=C(O)c1oc2ccccc2c1CSc1ccc(Cl)cc1,15.6%
7,O=C(CSc1nc2ccccc2[nH]1)c1ccccc1F,15.2%
8,O=C(NCCO)/C(=C\c1ccc2c(c1)OCO2)NC(=O)c1ccc(Br)cc1,-26.9%
9,Cc1ccc(NC(=O)/C(=C\c2cccs2)NC(=O)c2ccccc2)cc1,-1.02%
10,COc1ccc(S(=O)(=O)N2CCCCCC2)cc1C(=O)N1CCN(c2ccccc2C)CC1,2.59%
11,CN1CCN(c2ccc(CNS(=O)(=O)c3ccc(Cl)cc3)cc2)CC1,12.8%
12,COCCCNC(=O)CSc1nc2cc3c(cc2c(=O)n1CCCC(=O)NCc1ccc(OC)cc1)OCO3,10.3%
13,Cc1noc(C)c1CSc1nnc2n(-c3ccccc3)c(=O)c3ccccc3n12,-11.5%
14,Cc1cc(Oc2ccc(C(F)(F)F)cc2[N+](=O)[O-])c2c3c(c(=O)oc2c1)CCC3,14%
15,COC(=O)c1ccc2c(c1)N(Cc1nc(-c3ccc(Cl)cc3)oc1C)C(=O)C1CCCN21 (centres unmarked),9.35%
16,C/C(=N\NC(=O)CN1CCN(c2ccc(F)cc2)CC1)c1ccco1,1.44%
17,CC(=O)Nc1ccc(N(C(=O)c2ccco2)C(C(=O)NC2CCCCC2)c2ccccc2)cc1 (centres unmarked),9.39%
18,Cc1ccc(S(=O)(=O)N2CCC(C(=O)N3CCC[C@H]3C(=O)NC3CCS(=O)(=O)C3)CC2)cc1 (some centres unmarked),0.521%
19,CCN(C(=O)COc1ccc(C(=O)c2ccccc2)cc1)c1ccccc1,6.71%
20,O=C(c1ccccc1)C(Sc1ncn[nH]1)c1ccccc1 (centres unmarked),3.49%
21,COC(=O)/C(=C1/Oc2ccc(C(C)(C)C)cc2S1)C(F)(F)F,12.1%
22,Cc1ccccc1NC(=S)NCC(c1cccnc1)N(C)C (centres unmarked),10.9%
23,COc1ccc(Cl)cc1NC(=O)c1noc(C)c1[N+](=O)[O-],6.27%

row,SMILES,"hERG current change (%, negative = inhibition) at 1uM"
1,CCOc1cc(C)c(S(=O)(=O)NC2CC(C)(C)NC(C)(C)C2)cc1C,7.72%
2,CCOC(=O)C1(c2ccccc2)CCN(Cc2cccc(C(=O)O)c2)CC1.Cl,2.99%
3,CC(=O)Nc1ccc(C(=O)OCc2ccc(Cl)c(Cl)c2)cc1,12.2%
4,CC(=O)Nc1c(Nc2ccccc2)c2ccccc2oc1=O,13.6%
5,Cc1sc(NC(=O)C2CC=CCC2C(=O)O)c(C(=O)OC(C)C)c1C (centres unmarked),12.9%
6,COc1ccccc1N(CN1C(=O)c2ccccc2C1=O)C(=O)c1cccc(C)c1,12.4%
7,Cc1ccc(C(NC(=O)N2CCN(C)CC2)C(Cl)Cl)cc1F (centres unmarked),5.67%
8,COc1cccc(NC(=O)NC2(C(=O)N3CCC(O)CC3)CCCCC2)c1,15.5%
9,CC(C)(C)C(=O)Nc1c2c(nc3c1CCC3)CCCC2,0.315%
10,Cc1ccc(N(C(=O)C2CCCC2)C2C=CS(=O)(=O)C2)cc1 (centres unmarked),8.1%
11,Cc1cc(C)c2c(=O)n(CC(=O)Nc3ccc(Cl)cc3)sc2n1,11.9%
12,Cc1ccn(S(=O)(=O)c2ccc(N3CCCC3=O)cc2)n1,15.7%
13,O=C(N/N=C\C=C\c1ccco1)c1cc(-c2ccc3ccccc3c2)n[nH]1,1.18%
14,COc1ccc(OC)c(NC(=O)CSc2nc(N)c(-c3ccccc3)c(=O)[nH]2)c1,13.6%
15,O=C(Oc1nsnc1N1CCOCC1)N1CCOCC1,14.1%
16,CCN(CC)CCNCC(=O)Nc1ccc(Cl)cc1C(=O)c1ccccc1.O=C(O)C(=O)O,-84.2%
17,COCCN(C(=O)Cc1cccs1)C(C(=O)NCc1ccc(OC)cc1)c1ccc(C(C)C)cc1 (centres unmarked),9.05%
18,O=C(c1ccc(S(=O)(=O)N2CCOCC2)cc1)N1CCc2ccccc21,17.4%
19,COc1ccccc1NC(=O)C(=O)NCCCN1CCCC1=O,0.283%
20,COc1ccc(N2CCN(C(=O)CN3CCN(c4nc(-c5ccc(F)cc5)cs4)CC3)CC2)cc1,7.78%
21,COc1ccc2oc(=O)cc(CN3CCN(Cc4ccc(OC)c(OC)c4OC)CC3)c2c1,-2.05%
22,O=C(Nc1ccc(Cl)cc1)NC1CCCCC1,12.2%
23,CC(=O)Nc1ccc(Oc2cnc3ccccc3n2)cc1,0.103%

row,SMILES,"hERG current change (%, negative = inhibition) at 1uM"
1,Nc1nc(Nc2ccccc2)nc(C(F)(F)F)n1,14.7%
2,CC1(C)CC(=O)c2cnc(NC(=O)C3CCCC3)nc2C1,3.16%
3,CC(C)(Oc1ccc(Cl)cc1)C(=O)OCC(=O)NCCc1ccccc1,5.4%
4,O=S(=O)(Nc1ccncc1)c1cc(Cl)c(Cl)cc1Cl,7%
5,CCN1CCN(C(c2cccs2)C(C)NC(=O)NC2CCCCC2)CC1 (centres unmarked),-2.02%
6,COC(=O)[C@H]1CCCN1C(=O)Nc1cccc(Oc2c(F)c(F)c(F)c(F)c2F)c1,-9.06%
7,Cc1cc(NCc2ccccn2)nc2ccccc12,0.148%
8,COc1ccc(C2C(C#N)=C(N)Oc3c2oc(CO)cc3=O)c(OC)c1OC (centres unmarked),10.2%
9,O=C(CSc1nnc(NC(=O)C2CC2)s1)Nc1ccc(F)cc1F,-2.53%
10,C=CCN(CC=C)C(=O)Nc1cc(Cl)ccc1OC,4.63%
11,CCN1CCC[C@H]1CNC(=O)c1c(O)c(Cl)cc(Cl)c1OC.O=C(O)C(O)C(O)C(=O)O,-3.09%
12,COc1cccc(/C=N/NC(=O)CCn2nnc3ccccc32)c1,8.65%
13,Cc1ccc(S(=O)(=O)N(CC(=O)NC2CC2)c2ccc(C)c(Cl)c2)cc1,9.95%
14,CC(C)(C)C(=O)Nc1ccccc1C(=O)NCc1ccco1,2.64%
15,CC1(C)CC2CN(C(=O)Cc3ccccc3)C(C)(C2)C1 (centres unmarked),9.25%
16,COP(=O)(OC)C1(Nc2ccc(C)cc2)CCCCC1,5.74%
17,CCCOc1ccc(N2C(=O)CC(N(CCC)C(=O)CCC(=O)O)C2=O)cc1 (centres unmarked),10.2%
18,CCOc1cc(CNCCCN2CCOCC2)cc(Cl)c1OCC(=O)NC(C)(C)C.Cl,9.72%
19,COC(=O)c1cn(C)c2ccc(S(=O)(=O)N3CCOCC3)cc2c1=O,11.9%
20,CC(=O)c1cccc(NC(=O)c2ccc3ccccc3c2)c1,12.1%
